Laboratory results taken from article PMC4605305, “TRAP150 interacts with the RNA-binding domain of PSF and antagonizes splicing of numerous PSF-target genes in T cells” (Nucleic Acids Research, 2015).
Results are given in words; binding and its absence hold for the method and conditions named. For some of these results: In cells and extracts the contact can be indirect. Some results given as binding are weak or reduced against the parent protein; the word gives no strength. For some of these results: Sequences can lack the tags named with a protein. Values belong to the binder of their own block, whether it stands above or below them.

Tests used:
GST-TRAP266–596 = target: T1, GST-TRAP266–596 (UniProt Q9Y2W1); assay: pull-down; 40 ug GST-tagged bait on glutathione sepharose 4B beads; prey incubated 1.5 h at 4°C in PBS; washes with PBS supplemented with 300 mM NaCl; western blot; both purified
T1 sequence: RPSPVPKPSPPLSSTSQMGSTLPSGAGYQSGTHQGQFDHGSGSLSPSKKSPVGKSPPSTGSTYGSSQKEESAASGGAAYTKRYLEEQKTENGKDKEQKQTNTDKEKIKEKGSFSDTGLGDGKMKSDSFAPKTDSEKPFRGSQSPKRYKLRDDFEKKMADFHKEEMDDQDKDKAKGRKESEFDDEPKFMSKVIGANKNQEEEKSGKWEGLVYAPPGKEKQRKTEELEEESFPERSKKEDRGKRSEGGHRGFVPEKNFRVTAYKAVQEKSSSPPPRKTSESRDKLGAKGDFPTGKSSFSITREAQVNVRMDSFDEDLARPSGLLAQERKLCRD

[1] = substrate: T2, PSF (endogenous, JSL1 nuclear extract) (human (endogenous in JSL1 Jurkat cells)) (UniProt P23246); assay: co-IP; IP with PSF antibody from RNase-treated nuclear extract of JSL1 cells, unstimulated or stimulated with PMA; protein G Dynabeads; western blot
T2 sequence: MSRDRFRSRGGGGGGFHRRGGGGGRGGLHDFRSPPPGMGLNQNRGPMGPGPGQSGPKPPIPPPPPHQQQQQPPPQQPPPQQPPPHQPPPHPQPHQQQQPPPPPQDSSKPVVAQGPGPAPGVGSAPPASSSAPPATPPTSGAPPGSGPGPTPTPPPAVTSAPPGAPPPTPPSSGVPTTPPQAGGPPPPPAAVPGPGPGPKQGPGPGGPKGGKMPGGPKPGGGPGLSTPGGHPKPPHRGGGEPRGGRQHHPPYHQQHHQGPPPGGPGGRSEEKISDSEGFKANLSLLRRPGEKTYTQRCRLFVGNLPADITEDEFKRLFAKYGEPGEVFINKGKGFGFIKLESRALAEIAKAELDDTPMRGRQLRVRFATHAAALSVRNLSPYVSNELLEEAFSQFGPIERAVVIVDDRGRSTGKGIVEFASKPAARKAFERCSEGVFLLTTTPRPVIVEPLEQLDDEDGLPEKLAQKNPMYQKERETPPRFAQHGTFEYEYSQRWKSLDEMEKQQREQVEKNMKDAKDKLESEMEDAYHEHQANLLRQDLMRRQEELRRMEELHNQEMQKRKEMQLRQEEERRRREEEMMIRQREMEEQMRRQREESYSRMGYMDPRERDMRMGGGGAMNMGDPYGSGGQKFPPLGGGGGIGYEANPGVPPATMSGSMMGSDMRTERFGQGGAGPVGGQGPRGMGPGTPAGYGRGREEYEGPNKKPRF

[2] = target: T3, FLAG-PSF WT (full length PSF, FLAG-tagged, stably expressed in JSL1 cells) (UniProt P23246); assay: co-IP; anti-FLAG IP from nuclear extract (pretreated with RNase A and RNase T1) of JSL1 cells stably expressing FLAG-PSF WT or mutants; protein G Dynabeads; washes with IP buffer supplemented with 200 mM NaCl; western blot for endogenous TRAP150
T3 sequence: T2 sequence

[3] = target: T4, FLAG-PSF ΔRRMs (stably expressed in JSL1 cells) (UniProt P23246); assay: as above
T4 sequence: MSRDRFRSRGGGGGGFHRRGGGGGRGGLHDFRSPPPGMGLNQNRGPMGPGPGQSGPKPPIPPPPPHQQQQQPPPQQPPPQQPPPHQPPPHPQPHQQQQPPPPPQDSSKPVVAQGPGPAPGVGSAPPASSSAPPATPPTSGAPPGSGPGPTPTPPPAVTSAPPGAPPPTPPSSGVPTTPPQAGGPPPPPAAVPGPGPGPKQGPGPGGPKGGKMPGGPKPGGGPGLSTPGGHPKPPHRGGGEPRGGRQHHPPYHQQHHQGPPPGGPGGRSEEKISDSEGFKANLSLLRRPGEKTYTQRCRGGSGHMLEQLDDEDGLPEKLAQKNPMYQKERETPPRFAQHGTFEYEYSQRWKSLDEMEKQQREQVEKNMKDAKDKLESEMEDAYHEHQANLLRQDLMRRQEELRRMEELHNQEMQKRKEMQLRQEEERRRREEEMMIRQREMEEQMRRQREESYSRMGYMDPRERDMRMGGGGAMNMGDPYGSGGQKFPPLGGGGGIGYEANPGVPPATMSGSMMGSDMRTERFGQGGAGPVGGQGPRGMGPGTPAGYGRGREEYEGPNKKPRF

binding (GST-TRAP266–596): no binding
B1: HisFLAG-PSF exRRMs (266-484) (domain or fragment, UniProt P23246 266-484, looked up)
chain: GRSEEKISDSEGFKANLSLLRRPGEKTYTQRCRLFVGNLPADITEDEFKRLFAKYGEPGEVFINKGKGFGFIKLESRALAEIAKAELDDTPMRGRQLRVRFATHAAALSVRNLSPYVSNELLEEAFSQFGPIERAVVIVDDRGRSTGKGIVEFASKPAARKAFERCSEGVFLLTTTPRPVIVEPLEQLDDEDGLPEKLAQKNPMYQKERETPPRFAQHG
notes: also called HisFLAG-exRRMs; HFexRRM1+2; source: E. coli Rosetta(DE3)pLysS, purified (Ni-NTA, SEC); not shown: His6, N-terminal, kept; FLAG, N-terminal, kept

binding [1]: binds
binding [2]: binds
binding [3]: no binding
B2: TRAP150 (endogenous, JSL1 nuclear extract) (protein, UniProt Q9Y2W1 1-955)
chain: MSKTNKSKSGSRSSRSRSASRSRSRSFSKSRSRSRSLSRSRKRRLSSRSRSRSYSPAHNRERNHPRVYQNRDFRGHNRGYRRPYYFRGRNRGFYPWGQYNRGGYGNYRSNWQNYRQAYSPRRGRSRSRSPKRRSPSPRSRSHSRNSDKSSSDRSRRSSSSRSSSNHSRVESSKRKSAKEKKSSSKDSRPSQAAGDNQGDEAKEQTFSGGTSQDTKASESSKPWPDATYGTGSASRASAVSELSPRERSPALKSPLQSVVVRRRSPRPSPVPKPSPPLSSTSQMGSTLPSGAGYQSGTHQGQFDHGSGSLSPSKKSPVGKSPPSTGSTYGSSQKEESAASGGAAYTKRYLEEQKTENGKDKEQKQTNTDKEKIKEKGSFSDTGLGDGKMKSDSFAPKTDSEKPFRGSQSPKRYKLRDDFEKKMADFHKEEMDDQDKDKAKGRKESEFDDEPKFMSKVIGANKNQEEEKSGKWEGLVYAPPGKEKQRKTEELEEESFPERSKKEDRGKRSEGGHRGFVPEKNFRVTAYKAVQEKSSSPPPRKTSESRDKLGAKGDFPTGKSSFSITREAQVNVRMDSFDEDLARPSGLLAQERKLCRDLVHSNKKEQEFRSIFQHIQSAQSQRSPSELFAQHIVTIVHHVKEHHFGSSGMTLHERFTKYLKRGTEQEAAKNKKSPEIHRRIDISPSTFRKHGLAHDEMKSPREPGYKAEGKYKDDPVDLRLDIERRKKHKERDLKRGKSRESVDSRDSSHSRERSAEKTEKTHKGSKKQKKHRRARDRSRSSSSSSQSSHSYKAEEYTEETEEREESTTGFDKSRLGTKDFVGPSERGGGRARGTFQFRARGRGWGRGNYSGNNNNNSNNDFQKRNREEEWDPEYTPKSKKYYLHDDREGEGSDKWVSRGRGRGAFPRGRGRFMFRKSSTSPKWAHDKFSGEEGEIEDDESGTENREEKDNIQPTTE
